# Test results as given in the supplement of paper PMC8728848.
# Some of the results follow.
# What was measured:
# Assay in all cases: glycan array binding signal (z-score within array); higher = stronger binding
# Conditions in all cases: glycan notation: IUPAC condensed, linker removed
# [1] = target: Neu5Ac(a2-6)Gal(b1-4)GlcNAc(b1-2)Man(a1-3)[Gal(b1-4)GlcNAc(b1-2)Man(a1-6)]Man(b1-4)GlcNAc(b1-4)GlcNAc
# How it was run: (§1)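 The binding signal is a Z-score computed within each array. Data were drawn from 3228 arrays in the Consortium for Functional Glycomics database, restricted to those with a known protein sequence. Scores were averaged over arrays of the same protein sequence at different concentrations or buffers, and over linkers, and negative values can be taken as non-binding.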
# [2] = target: Neu5Ac(a2-6)Gal(b1-4)GlcNAc(b1-2)Man(a1-3)[GlcNAc(b1-2)Man(a1-6)]Man(b1-4)GlcNAc(b1-4)GlcNAc
# How it was run: as §1
# [3] = target: Neu5Ac(a2-6)Gal(b1-4)GlcNAc(b1-2)Man(a1-3)[GlcNAc(b1-2)Man(b1-4)GlcNAc(b1-2)Man(a1-6)]Man(b1-4)GlcNAc(b1-4)GlcNAc
# How it was run: as §1
# [4] = target: Neu5Ac(a2-6)Gal(b1-4)GlcNAc(b1-2)Man(a1-3)[Neu5Ac(a2-6)Gal(b1-4)GlcNAc(b1-2)Man(a1-6)]Man(b1-4)GlcNAc(b1-4)GlcNAc
# How it was run: as §1
# [5] = target: Neu5Ac(a2-6)Gal(b1-4)GlcNAc(b1-2)Man(a1-6)[Gal(b1-4)GlcNAc(b1-2)Man(a1-3)]Man(b1-4)GlcNAc(b1-4)GlcNAc
# How it was run: as §1
# [6] = target: Neu5Ac(a2-6)Gal(b1-4)GlcNAc(b1-2)Man(a1-6)[GlcNAc(b1-2)Man(a1-3)]Man(b1-4)GlcNAc(b1-4)GlcNAc
# How it was run: as §1
# [7] = target: Neu5Ac(a2-6)Gal(b1-4)GlcNAc(b1-3)Gal(b1-4)GlcNAc
# How it was run: as §1
# [8] = target: Neu5Ac(a2-6)Gal(b1-4)GlcNAc(b1-3)Gal(b1-4)[Fuc(a1-3)]GlcNAc(b1-3)Gal(b1-4)[Fuc(a1-3)]GlcNAc
# How it was run: as §1
# [9] = target: Neu5Ac(a2-6)Gal(b1-4)GlcNAc6S
# How it was run: as §1
# [10] = target: Neu5Ac(a2-6)GalNAc
# How it was run: as §1
# [11] = target: Neu5Ac(a2-6)GalNAc(b1-4)GlcNAc
# How it was run: as §1
# [12] = target: Neu5Ac(a2-8)Neu5Ac
# How it was run: as §1
# [13] = target: Neu5Ac(a2-8)Neu5Ac(a2-3)Gal(b1-4)Glc
# How it was run: as §1
# [14] = target: Neu5Ac(a2-8)Neu5Ac(a2-3)[GalNAc(b1-4)]Gal(b1-4)Glc
# How it was run: as §1
# [15] = target: Neu5Ac(a2-8)Neu5Ac(a2-8)Neu5Ac
# How it was run: as §1
# [16] = target: Neu5Ac(a2-8)Neu5Ac(a2-8)Neu5Ac(a2-3)Gal(b1-4)Glc
# How it was run: as §1
# [17] = target: Neu5Ac(a2-8)Neu5Ac(a2-8)Neu5Ac(a2-3)[GalNAc(b1-4)]Gal(b1-4)Glc
# How it was run: as §1
# [18] = target: Neu5Ac(a2-8)Neu5Ac(a2-8)Neu5Ac(a2-8)Neu5Ac(a2-3)[GalNAc(b1-4)]Gal(b1-4)Glc
# How it was run: as §1
# [19] = target: Neu5Ac(b2-6)Gal(b1-4)GlcNAc
# How it was run: as §1
# [20] = target: Neu5Ac(b2-6)GalNAc
# How it was run: as §1
# [21] = target: Neu5Ac9Ac(a2-6)Gal(b1-4)GlcNAc
# How it was run: as §1
# [22] = target: Neu5Gc(a2-3)Gal(b1-3)GlcNAc
# How it was run: as §1
# [23] = target: Neu5Gc(a2-3)Gal(b1-3)[Fuc(a1-4)]GlcNAc
# How it was run: as §1
# [24] = target: Neu5Gc(a2-3)Gal(b1-4)Glc
# How it was run: as §1
# [25] = target: Neu5Gc(a2-3)Gal(b1-4)GlcNAc
# How it was run: as §1
# [26] = target: Neu5Gc(a2-3)Gal(b1-4)[Fuc(a1-3)]GlcNAc
# How it was run: as §1
# [27] = target: Neu5Gc(a2-6)Gal(b1-4)GlcNAc
# How it was run: as §1
# [28] = target: Neu5Gc(a2-6)GalNAc
# How it was run: as §1
# [29] = target: Neu5Gc(b2-6)Gal(b1-4)GlcNAc
# How it was run: as §1
binder,measurement,setting,value
"Factor H (Homo sapiens), P08603 (protein) MRLLAKIICLMLWAICVAEDCNELPPRRNTEILTGSWSDQTYPEGTQAIYKCRPGYRSLGNVIMVCRKGEWVALNPLRKCQKRPCGHPGDTPFGTFTLTGGNVFEYGVKAVYTCNEGYQLLGEINYRECDTDGWTNDIPICEVVKCLPVTAPENGKIVSSAMEPDREYHFGQAVRFVCNSGYKIEGDEEMHCSDDGFWSKEKPKCVEISCKSPDVINGSPISQKIIYKENERFQYKCNMGYEYSERGDAVCTESGWRPLPSCEEKSCDNPYIPNGDYSPLRIKHRTGDEITYQCRNGFYPATRGNTAKCTSTGWIPAPRCTLKPCDYPDIKHGGLYHENMRRPYFPVAVGKYYSYYCDEHFETPSGSYWDHIHCTQDGWSPAVPCLRKCYFPYLENGYNQNYGRKFVQGKSIDVACHPGYALPKAQTTVTCMENGWSPTPRCIRVKTCSKSSIDIENGFISESQYTYALKEKAKYQCKLGYVTADGETSGSITCGKDGWSAQPTCIKSCDIPVFMNARTKNDFTWFKLNDTLDYECHDGYESNTGSTTGSIVCGYNGWSDLPICYERECELPKIDVHLVPDRKKDQYKVGEVLKFSCKPGFTIVGPNSVQCYHFGLSPDLPICKEQVQSCGPPPELLNGNVKEKTKEEYGHSEVVEYYCNPRFLMKGPNKIQCVDGEWTTLPVCIVEESTCGDIPELEHGWAQLSSPPYYYGDSVEFNCSESFTMIGHRSITCIHGVWTQLPQCVAIDKLKKCKSSNLIILEEHLKNKKEFDHNSNIRYRCRGKEGWIHTVCINGRWDPEVNCSMAQIQLCPPPPQIPNSHNMTTTLNYRDGEKVSVLCQENYLIQEGEEITCKDGRWQSIPLCVEKIPCSQPPQIEHGTINSSRSSQESYAHGTKLSYTCEGGFRISEENETTCYMGKWSSPPQCEGLPCKSPPEISHGVVAHMSDSYQYGEEVTYKCFEGFGIDGPAIAKCLGEKWSHPPSCIKTDCLSLPSFENAIPMGEKKDVYKAGEQVTYTCATYYKMDGASNVTCINSRWTGRPTCRDTSCVNPPTVQNAYIVSRQMSKYPSGERVRYQCRSPYEMFGDEEVMCLNGNWTEPPQCKDSTGKCGPPPPIDNGDITSFPLSVYAPASSVEYQCQNLYQLEGNKRITCRNGQWSEPPKCLHPCVISREIMENYNIALRWTAKQKLYSRTGESVEFVCKRGYRLSSRSHTLRTTCWDGKLEYPTCAKR",glycan array binding signal (z-score),[1],-0.129
same,glycan array binding signal (z-score),[2],-0.23
same,glycan array binding signal (z-score),[3],-0.629
same,glycan array binding signal (z-score),[4],-0.439
same,glycan array binding signal (z-score),[5],-0.254
same,glycan array binding signal (z-score),[6],-0.105
same,glycan array binding signal (z-score),[7],-0.102
same,glycan array binding signal (z-score),[8],-0.426
same,glycan array binding signal (z-score),[9],-0.125
same,glycan array binding signal (z-score),[10],-0.024
same,glycan array binding signal (z-score),[11],-0.545
same,glycan array binding signal (z-score),[12],-0.39
same,glycan array binding signal (z-score),[13],0.162
same,glycan array binding signal (z-score),[14],-0.385
same,glycan array binding signal (z-score),[15],0.243
same,glycan array binding signal (z-score),[16],-0.444
same,glycan array binding signal (z-score),[17],0.747
same,glycan array binding signal (z-score),[18],-0.493
same,glycan array binding signal (z-score),[19],-0.471
same,glycan array binding signal (z-score),[20],-0.523
same,glycan array binding signal (z-score),[21],-0.353
same,glycan array binding signal (z-score),[22],-0.078
same,glycan array binding signal (z-score),[23],-0.274
same,glycan array binding signal (z-score),[24],-0.053
same,glycan array binding signal (z-score),[25],-0.549
same,glycan array binding signal (z-score),[26],-0.473
same,glycan array binding signal (z-score),[27],-0.2
same,glycan array binding signal (z-score),[28],-0.411
same,glycan array binding signal (z-score),[29],-0.417
